Reference: the supplement of paper PMC11417369
The other results are listed elsewhere or left out.

tested on: PfSIP2 AP2 domain 1 (GST-tagged); experiment: gcPBM binding intensity (ln(normalized median fluorescence intensity)); higher = stronger DNA binding
Method in brief: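 Probes on an Agilent 4 × 180k array were primer-extended, double-stranded and 36 bp long, taken from intergenic genomic regions, with negative controls added. GST-tagged P. falciparum DNA-binding domains from E. coli, about 25 μg on average, were applied to the array for 1 h in 1× PBS containing 1% milk, 0.2 mg/ml BSA, 0.5% salmon testes DNA and 0.03% Triton X-100. Binding intensity, obtained after Alexa488 anti-GST antibody detection and a 488 nm scan, is the highest Masliner-normalised natural-log median intensity across replicate spots of either probe orientation.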

Compared with “TATAACACACAATGATGTACATTACATTATTTTTTA [XGTACX_site2076]”, “TTTTCTATATAACAACGTACATTTATTATATTATAA [XGTACX_site6148]” is higher in “gcPBM binding intensity (ln)” value: 7.06 for the first, 7.2 for the second.

First: ATATATATATATATGTGTACATATTTTTTTGAAGTG [XGTACX_site248]
Second: TAATATAAATGAAAGGTGCTTTTGCTTTCTTTTTTT
The “gcPBM binding intensity (ln)” value of the first is higher: 9.61 for the first, 7.08 for the second.

Going from “AAAAAAAAAAAAAATACACACACACCGATATATATA [CACACA_site8142]” to “ATACATATAATAATATGTACATATAATTATATATAT [XGTACX_site913]”, the “gcPBM binding intensity (ln)” value rises from 7.33 to 7.39.

First: TAATATATTTTTAACATGCACTGTATTTTAATATAT
Second: TCTGGATTGGATTACAAGAAAATAAAATATAAAATA [CACACA_negctrl_site122]
The “gcPBM binding intensity (ln)” value of the first is higher: 9.48 for the first, 7.06 for the second.

Going from “TATACAAATATATATGCACACACATATATGTATATG [CACACA_site9007]” to “TATAAAACAAATATATGTACATATCATAGTATAATA [XGTACX_site2965]”, the “gcPBM binding intensity (ln)” value falls from 7.36 to 7.09.

Going from “TAATTAAAGTTATCTACACACCTTTATAGATATATA [CACACA_site7778]” to “AATTAAATGATTTATACATGCATATAAATATAAATA [TGCATGCA_site579]”, the “gcPBM binding intensity (ln)” value rises from 6.7 to 7.03.

Going from “AGTAGAAAAGGAACATGTACGAATTAAAAAAATAAT [XGTACX_site2347]” to “TCTGTAAATATGTATACACACATATATGATCAATAT [CACACA_site3234]”, the “gcPBM binding intensity (ln)” value rises from 6.94 to 7.11.

Compared with “ACATATATATATATATATATATATATATTTATTTAT [CACACA_negctrl_site734]”, “TACACCATGATACATACACACAGACATATACACATT [CACACA_site6601]” is lower in “gcPBM binding intensity (ln)” value: 8.04 for the first, 7.32 for the second.

First: AAAAAACATTTGATCTGTACGCATAGACAATTATAT [XGTACX_site960]
Second: AATAATATGTTATCTCTTACACATATAAAAAATAAA [XGTACX_negctrl_site370]
The “gcPBM binding intensity (ln)” value of the first is higher: 7.07 for the first, 6.94 for the second.

Going from “TAAAAGAAAGCACATACACACACAAAAAAAAAAAAG [CACACA_site8159]” to “TTATACTGTACAAAAAGAATAGCAGTATAACAAAAA [CACACA_negctrl_site755]”, the “gcPBM binding intensity (ln)” value rises from 6.94 to 7.03.

Compared with “ACAGGATTGGTTCAAACACACATATTATAGGACTAT [CACACA_site6455]”, “AATATGTTTTGTTAGGTTGGTGTTGGTAGAATGTTT [CACACA_negctrl_site1563]” is lower in “gcPBM binding intensity (ln)” value: 6.94 for the first, 6.92 for the second.

Going from “AAAAAAAAATCATATTGTACGTAAAAAAAAAAAAAA [XGTACX_site476]” to “CAATATATTTGATTTACACACTTACAATGTATTTAA [CACACA_site5632]”, the “gcPBM binding intensity (ln)” value falls from 7.19 to 6.9.

First: ATAATCCTTAGACACACACACACACGAATAAATAAA [CACACA_site6364]
Second: CGAAAAAATAAAAAAAAAATAAAATAAAATAAATAA [TGCATGCA_negctrl_site278]
The “gcPBM binding intensity (ln)” value of the first is higher: 7.21 for the first, 6.66 for the second.

Compared with “AATCTAGGTATTTATACACACTAAAATAATATACGA [CACACA_site4515]”, “AAAAAAAAAAGAAACACACACATATAGATTTATAAC [CACACA_site6927]” is higher in “gcPBM binding intensity (ln)” value: 6.91 for the first, 6.96 for the second.

Going from “ATTTAAATAATATTCACACACAAAATTAAATTTTAA [CACACA_site6246]” to “AAAAAATTAACCGTAACACACACACCGATATATATA [CACACA_site9312]”, the “gcPBM binding intensity (ln)” value rises from 7.11 to 7.18.

Compared with “GCTCTAATTAATATTTGTACACACATATTTAACCTA [XGTACX_site6808]”, “TTTTTTTTTTTTTTTTGTACATAATTCCATATTTTT [XGTACX_site1789]” is lower in “gcPBM binding intensity (ln)” value: 7.24 for the first, 6.92 for the second.

Going from “TGATCTTTACACATATTATATATATATAAAAAAAAA [XGTACX_negctrl_site360]” to “TTATAACATATAAACATGTTTCATCTTACGTATTTT [GTGCAC_negctrl_site694]”, the “gcPBM binding intensity (ln)” value falls from 7.22 to 7.01.

Compared with “TGTTATATCAATAATATATAATAATACCCTTCTTTT [CACACA_negctrl_site1682]”, “ATATTTAATTTGTATGGTACAGTACGATCTTTCTTT [XGTACX_site5533]” is higher in “gcPBM binding intensity (ln)” value: 6.63 for the first, 6.87 for the second.

First: ATAAGAATATATAGAGTGCGTTGAAGAATTATAATA
Second: CCCTCAACGAATTTGAGTACACATTTTAAATGATAT [XGTACX_site7763]
The “gcPBM binding intensity (ln)” value of the first is higher: 7.56 for the first, 6.94 for the second.

First: ATCGCAAGATTAATATAAGGAGAAACGTTTATATAT [GTGCAC_negctrl_site267]
Second: GGCAACAATGTAGATTGTACATATGAATTTTACAAT [XGTACX_site5655]
The “gcPBM binding intensity (ln)” value of the first is higher: 7.14 for the first, 6.91 for the second.

First: ATATTTTGTTTTATAGTGCACATGGGCATATATTAA [GTGCAC_site9435]
Second: ATATATATTATCATTGTGCACTTATTTATATACCTT
The “gcPBM binding intensity (ln)” value of the first is lower: 9.82 for the first, 10.5 for the second.

First: TTTACTTTTTTTTCTTGTACTCATACATACTATCAT [XGTACX_site4919]
Second: AAATTTCAATAATCTACACACATAAAAAAACAAAAG [CACACA_site1702]
The “gcPBM binding intensity (ln)” value of the first is lower: 7.19 for the first, 7.36 for the second.

Going from “TTTAATAAATAAATAAATAAAATATATTAAAAACCA [CACACA_negctrl_site80]” to “ATATTTTATTATTGTTGTACTTTTTTTTTTTGATTG [XGTACX_site4091]”, the “gcPBM binding intensity (ln)” value rises from 6.87 to 7.07.

Going from “ATAATATGAAAACACACACACACACTAATAAAAAAA [CACACA_site8617]” to “ATATAAAAATTAAAATGTACATATCTTATTATAATA [XGTACX_site983]”, the “gcPBM binding intensity (ln)” value falls from 7.25 to 7.07.

Compared with “TAATAAAATAATATCACACATATTTATATATATTAT [CACACA_site5814]”, “CAACATAAAAATTAAGCATGCAATAGACTTGTGTTG [TGCATGCA_site417]” is lower in “gcPBM binding intensity (ln)” value: 6.73 for the first, 6.65 for the second.

First: GTTTAAAAAAATTATCAACTTTAAAAAGGTAACATT [XGTACX_negctrl_site203]
Second: GTAGTAAATAGGAGGATGCATATGGCACACATTATA [TGCATGCA_negctrl_site59]
The “gcPBM binding intensity (ln)” value of the first is lower: 6.78 for the first, 7.91 for the second.

Going from “ATAAAAAGGAAACACACACACACACCCATATATATA [CACACA_site904]” to “TGAATAATATACATACGTACATACATATATATAATA [XGTACX_site1302]”, the “gcPBM binding intensity (ln)” value falls from 7.3 to 7.05.

Going from “TTTTTTTTTTTTTTTTTTTTCATTCAATTATATTTA [CACACA_negctrl_site712]” to “TTATCACATAAACGATGTACGTACTAGGTTTTTTTT [XGTACX_site2147]”, the “gcPBM binding intensity (ln)” value falls from 6.96 to 6.92.

Going from “AAAGGAATATAATGATGTACACAAATATATATACAT [XGTACX_site5347]” to “AACTAATATAATAATACATGCACATAAAAATATATA [TGCATGCA_site606]”, the “gcPBM binding intensity (ln)” value rises from 7.06 to 8.89.

Compared with “CACGCATACGGACACACACACACACCGATATATATA [CACACA_site4521]”, “TATTTTTTTATTTGTGCATGTCATATTTAAACATAA [TGCATGCA_site1006]” is higher in “gcPBM binding intensity (ln)” value: 7.44 for the first, 7.83 for the second.

Compared with “TATAAATTTGTTGTTGCATGCAGTATACCAAAAAAA [TGCATGCA_site445]”, “ATTTGTAATTTATATTCACACATTCAAAAAAATGAG [CACACA_site6057]” is lower in “gcPBM binding intensity (ln)” value: 7.46 for the first, 6.84 for the second.

Compared with “AAAAATATAATATAATGTACACAAAAAAAAAAAAAT [XGTACX_site4914]”, “TAAAATGTAATCTGAACACACATATTTTTTTAATAT [CACACA_site1768]” is lower in “gcPBM binding intensity (ln)” value: 7.13 for the first, 6.81 for the second.

First: AATAGCCCATATGGAATACACACTGAAAATAAAAAA [CACACA_site3373]
Second: CCATAAAAAGGATACACACACACACCGACATATATA [CACACA_site4653]
The “gcPBM binding intensity (ln)” value of the first is lower: 6.92 for the first, 7.04 for the second.

Compared with “GTATTATATTTCAACTGTACGTAAAACTATTAAAAT [XGTACX_site3679]”, “TTCATTTAGCAAGAATGTACTTATATATATATATAT [XGTACX_site3401]” is higher in “gcPBM binding intensity (ln)” value: 7.6 for the first, 8.81 for the second.

Compared with “ATAAAGCCATACAATACACACATTTTACATGGGGGT [CACACA_site9072]”, “CAAAAAAATGTGAAGGCATGCAAATATGTAAAATAA [TGCATGCA_site921]” is lower in “gcPBM binding intensity (ln)” value: 7.72 for the first, 6.83 for the second.

Compared with “CTTTCTTATTTGAACGCATGCATTTGTACCTTTTAT [TGCATGCA_site671]”, “TATATACAAAATGCCTGTACATATATATTTATTTAT [XGTACX_site761]” is lower in “gcPBM binding intensity (ln)” value: 7.1 for the first, 7.04 for the second.

Compared with “CATGCAAAAAATTCCACACACACACCCACATATAAA [CACACA_site1229]”, “AATTATTTATCGGAATGTACATAAAAACATATGTAT [XGTACX_site7443]” is higher in “gcPBM binding intensity (ln)” value: 7.14 for the first, 7.17 for the second.

Going from “AATAATATCATTTAGACACACACTCTTACAATATGT [CACACA_site8832]” to “ACCTACATAACATACACACGCATATATATAATTTTA [CACACA_site2847]”, the “gcPBM binding intensity (ln)” value rises from 6.97 to 7.61.

Going from “TATTTAATAAAGAAATAAAAATAAAGAAAAAAAAAA [CACACA_negctrl_site74]” to “TATTATATCGAACACTGTACTTTTTTATTCAACCTA [XGTACX_site493]”, the “gcPBM binding intensity (ln)” value rises from 6.59 to 6.92.

Going from “GCCTTTTTATTTAGAACACACACAAAAAAAAAAAAA [CACACA_site8520]” to “AATAATAAATATATATATATATATATATATATATTT [CACACA_negctrl_site786]”, the “gcPBM binding intensity (ln)” value rises from 7.56 to 7.62.

Compared with ATATATATATATATAGTGCAAATATCTTCTTTATAA, “TAATAAACCAAACTAAACAATATATCAAAAAGCACA [CACACA_negctrl_site269]” is lower in “gcPBM binding intensity (ln)” value: 9.74 for the first, 7.47 for the second.

Going from “TACAAATACATTACATGTACATATTTAATAATATCA [XGTACX_site2075]” to “TTTTCAATTAATAATACACACATGTATATATTATTA [CACACA_site3311]”, the “gcPBM binding intensity (ln)” value rises from 6.89 to 6.95.

First: AAGAAAAATATATATATAAATAAATAAATATATATA [TGCATGCA_negctrl_site330]
Second: TTTGAAAAGTATGAGGTGCAAAAAATGTAATGAAAT
The “gcPBM binding intensity (ln)” value of the first is lower: 6.98 for the first, 10.2 for the second.

Going from “TATATTATTATGCATAGTACGTACTGTGATAAGAAT [XGTACX_site2956]” to “TTTTTCTGTCGTTGTTGTACTTGAGGAGTAACAATT [XGTACX_site7852]”, the “gcPBM binding intensity (ln)” value falls from 7.42 to 7.35.

“CATTTTAAAACAGACACACACCAAAAAAAAAAAAAA [CACACA_site6259]” was tested, and the “gcPBM binding intensity (ln)” value was 6.99.
